Results published in PubChem BioAssay AID624170 (National Center for Advancing Translational Sciences (NCATS), 2012).
Hit rate of the full screen: of about 410,000 compounds, about 850 (0.21%) were called active. Inconclusive means that the source gave no clear call. Such entries were picked first, then a sample of the others. Calls come from the whole dose curve; as a rule, active = well fitted inhibition curve with a large enough effect; inconclusive = small, poorly fitted or top-dose-only effect, or another doubt; inactive = no such curve, though single readings can be large or run the other way. Potencies of inconclusive entries are left out as doubtful fits.
% is set by controls: 0 for no effect and ±100 for the full control effect; potency is the fitted concentration of half-maximal effect; tags give direction and shape of the fitted curve.

The compounds below were run against Glutaminase kidney isoform, mitochondrial (Homo sapiens) (UniProt O94925) (assay: qHTS for Inhibitors of Glutaminase (GLS)). Conditions: GLS enzymatic activity, qHTS titration; series mostly up to 45.5 µM; activity change, negative = inhibition: at the top concentration.
Sequence of UniProt O94925 (O94925 whole entry, looked up, canonical isoform): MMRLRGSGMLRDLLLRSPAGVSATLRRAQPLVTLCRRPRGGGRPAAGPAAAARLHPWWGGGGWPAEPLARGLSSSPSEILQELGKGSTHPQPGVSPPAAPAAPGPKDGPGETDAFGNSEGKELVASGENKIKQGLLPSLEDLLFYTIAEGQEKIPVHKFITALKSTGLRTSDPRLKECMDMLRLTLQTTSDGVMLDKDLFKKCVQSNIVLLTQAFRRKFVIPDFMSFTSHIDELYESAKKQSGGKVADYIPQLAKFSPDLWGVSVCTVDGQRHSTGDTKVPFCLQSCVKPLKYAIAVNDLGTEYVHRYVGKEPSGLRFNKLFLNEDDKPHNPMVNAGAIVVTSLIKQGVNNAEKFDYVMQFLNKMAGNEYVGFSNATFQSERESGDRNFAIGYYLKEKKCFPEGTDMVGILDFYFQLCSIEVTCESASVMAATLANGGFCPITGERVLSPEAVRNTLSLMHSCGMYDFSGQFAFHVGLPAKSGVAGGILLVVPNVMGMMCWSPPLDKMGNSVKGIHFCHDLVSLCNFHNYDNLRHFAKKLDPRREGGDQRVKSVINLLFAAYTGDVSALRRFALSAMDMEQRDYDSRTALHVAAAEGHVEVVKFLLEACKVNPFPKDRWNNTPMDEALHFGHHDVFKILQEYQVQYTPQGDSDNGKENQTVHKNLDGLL
Method in brief: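 Read-out is an Amplex red fluorescence increase coupled through glutamate oxidase and HRP, measured before and after 30 min room-temperature incubation. hKGA is in 45 mM KH2PO4 (pH 8.2) with 0.02% Tween-20; glutamine added as 1mM solution.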
`COc1ccccc1NC(=O)c1ccc(N2CC3CC(C2)c2cccc(=O)n2C3)c(NC(=O)c2ccncc2)c1` (stereo unspecified) was tested, and the “activity change, negative = inhibition” value was inactive: 13.7%.
`CCOc1ncccc1C(=O)N1CCN(c2cc(Cl)ccc2C)CC1` was tested, and the “activity change, negative = inhibition” value was inactive: 3.52%.
`O=C(O)C1C2C=CC(CC2)C1C(=O)O` (stereo unspecified) was tested, and the Potency was inconclusive [inhibitor, single point].
`O=C(CCCN1C(=O)/C(=C\c2ccco2)SC1=S)Nc1ccc(O)cc1C(=O)O` was tested, and the Potency was inconclusive [inhibitor, single point].
`O=c1ccccn1Cc1c(F)cccc1Cl` was tested, and the Potency was inconclusive [inhibitor, single point].
With `COCCNC(=S)NNc1cccc(C(=O)O)c1` the Potency was inconclusive [inhibitor, single point].
`COc1cccc(C(c2nnnn2Cc2ccco2)N2CCN(Cc3ccccc3)CC2)c1OC` (stereo unspecified) was tested, and the “activity change, negative = inhibition” value was inactive: -4.59%.
For `c1ccc(CCn2nnnc2C(c2cccnc2)N2CCN(c3ccccc3)CC2)cc1` (stereo unspecified), the Potency was inconclusive [inhibitor, single point].
For `COC(=O)c1ccc(Oc2cc(C)nc(SC)n2)cc1`, the Potency was inconclusive [inhibitor, single point].
`NNC(=O)COc1ccc2oc3c(c2c1)CCCC3` was tested, and the Potency was inconclusive [inhibitor, partial curve, poor fit].
In the case of `Cc1sc(NC(=O)c2ccc3ncsc3c2)c(C(N)=O)c1C`, the Potency is reported as inconclusive [inhibitor, partial curve].
In the case of `O=C(CSc1ncccn1)Nc1ccc(Cl)c(S(=O)(=O)N2CCOCC2)c1`, the Potency is reported as inconclusive [inhibitor, full curve].
`O=C(NNc1nc2c(F)cccc2s1)C1=COCCO1` was tested, and the Potency was inconclusive [inhibitor, partial curve].
With `Cc1ccc(O)c(C=Nc2cc(C)ccc2O)c1` the Potency was inconclusive [inhibitor, single point].
In the case of `Cc1cccc2cc(C3CC(c4cccs4)=NN3C(=O)CCC(=O)O)c(Cl)nc12` (stereo unspecified), the Potency is reported as inconclusive [inhibitor, single point].
For `CC1=NN(c2ccc(C(=O)O)c(N)c2)C(=O)C1`, the Potency was inconclusive [inhibitor, single point].
For `CCOc1ncccc1C(=O)OCC(=O)c1ccc(OC)c(OC)c1`, the Potency was inconclusive [inhibitor, single point].
With `COc1ccccc1N1CCN(C(=O)[C@H](C)NS(=O)(=O)c2ccc3c(c2)OCCCO3)CC1` the “activity change, negative = inhibition” value was inactive: 1.29%.
With `O=C(Nc1ccccc1Cl)c1ccc([N+](=O)[O-])o1` the “activity change, negative = inhibition” value was inactive: -2.88%.
For `COc1ccc(/C=C/C(=O)O)cc1S(=O)(=O)N1CCCc2ccccc21`, the Potency was inconclusive [inhibitor, single point].
In the case of `O=C(CSc1nc(-c2ccccc2)cc(=O)[nH]1)N1CCc2ccccc21`, the Potency is reported as inconclusive [inhibitor, single point].
`COc1ccc(NC(=O)NC(C)(C(F)(F)F)C(F)(F)F)cc1` was tested, and the Potency was inconclusive [inhibitor, single point].
`Cc1c(N=Nc2ccc(O)cc2)c(=O)n(-c2ccccc2)n1C` was tested, and the Potency was inconclusive [inhibitor, partial curve].
For `CCc1cc(-c2[nH]ncc2-c2ccc(OC)cc2)c(O)cc1O`, the Potency was inconclusive [inhibitor, partial curve, poor fit].
In the case of `Cn1cc(/C=C(\C#N)C(=O)Nc2ccccc2O)c2ccccc21`, the Potency is reported as inconclusive [inhibitor, partial curve].
For `COc1cc(C(=O)N2c3ccccc3CCC2C)cc(OC)c1OC` (stereo unspecified), the “activity change, negative = inhibition” value was inactive: 0.646%.
`NCCCC[C@H]1NC(=O)[C@H](CCC(=O)O)NC(=O)c2cc([N+](=O)[O-])cc(I)c2OCC[C@@H](C(N)=O)NC1=O` was tested, and the Potency was inconclusive [inhibitor, single point].
`COC(=O)C1=C(CSc2nc3ccccc3s2)NC(=O)NC1c1ccc(F)cc1` (stereo unspecified) was tested, and the Potency was inconclusive [inhibitor, single point].
With `C/C(=N\Nc1ccc(Cl)c(C(=O)O)c1)c1cccs1` the Potency was inconclusive [inhibitor, partial curve, poor fit].
For `O=c1[nH]cnc2c1c(-c1ccccc1)cn2-c1ccc(F)cc1`, the Potency was inconclusive [inhibitor, single point].
For `C=Cc1c(C)c2cc3nc(cc4[nH]c(cc5nc(cc1[nH]2)C(C)=C5CCC(=O)O)c(CCC(=O)OC)c4C)[C@@]1(C)C3=CC=C(C(=O)OC)[C@H]1C(=O)OC` (tested in a mixture with another compound), the Potency was inconclusive [inhibitor, single point].
In the case of `C/C(=C\C(=O)c1ccc(Br)cc1)NNC(=O)c1ccccc1`, the Potency is reported as inconclusive [inhibitor, partial curve].
With `CCc1ccc(C2=CC(c3c(F)cccc3Cl)n3c(nc4ccccc43)N2)cc1` (stereo unspecified) the Potency was inconclusive [inhibitor, single point].
In the case of `Cc1cc(/C=N/NC(=O)C(O)(c2ccccc2)c2ccccc2)c(C)n1-c1cccc(C(=O)O)c1`, the Potency is reported as inconclusive [inhibitor, single point].
In the case of `N#CC(=C1Nc2ccccc2N1)S(=O)(=O)c1ccccc1`, the Potency is reported as inconclusive [inhibitor, single point].
For `CCOC(=O)[C@]12Cc3c(cc(OC)c(OC)c3OC)[C@H]1N(Cc1ccccc1)C(=O)c1cc(OC)ccc12`, the Potency was inconclusive [inhibitor, partial curve, poor fit].
For `Cc1ccc(NC(=O)C(C)OC(=O)c2nc(Cl)ccc2Cl)cc1S(=O)(=O)N1CCOCC1` (stereo unspecified), the “activity change, negative = inhibition” value was inactive: 17.6%.
In the case of `CCOC(=O)Cc1ccc(NC(=O)c2ccc(C(C)(C)C)cc2)cc1`, the Potency is reported as inconclusive [inhibitor, single point].
With `O=C(CSc1nnc(CNC(=O)c2ccco2)o1)Nc1ccc(Br)cc1` the “activity change, negative = inhibition” value was inactive: -1.08%.
In the case of `CC(C)CCNC(=O)c1cn(C)c2ccc(S(=O)(=O)N3CCOCC3)cc2c1=O`, the “activity change, negative = inhibition” value is reported as inactive: 2.92%.
`CCOC(=O)c1cc(-c2ccc([N+](=O)[O-])cc2)nc2c1c(=O)[nH]c(=O)n2Cc1ccccc1` was tested, and the Potency was inconclusive [inhibitor, single point].
